Assay results as given in PubChem BioAssay (NCATS).
Where “and” joins values, the source holds several entries; their conditions need not be identical. Identical values can stand only once. Inconclusive means that the source gave no clear call. Such entries were picked first, then a sample of the others. Potencies of inconclusive entries are doubtful fits and often do not repeat. Calls of active or inactive are those of the source. Calls come from the whole dose curve; as a rule, active = well fitted cell-killing curve with a large enough effect; inconclusive = small, poorly fitted or top-dose-only effect, or effect the other way; inactive = no such curve, though single readings can be large or run the other way.

Legend:
[1] = Viability qHTS for spleen associated tyrosine kinase inhibitor (SYKi) naive MV4-11 cells (AID 1963823); settings: MV4-11 AML viability, CellTiter-Glo luminescence, 72 h; viability (% of control): at 45 µM (top of the series); note: nearly all actives have a fitted effect of over 40% in size
Procedure, shortened: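 SYK inhibitor-naive MV4-11 cells, 500 per well, exposed to compounds for 72 hr at 37 C, 5% CO2. Viability read as CellTiter-Glo luminescence after 10 min at room temperature.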

[2] = Viability qHTS for spleen associated tyrosine kinase inhibitor (SYKi) drug resistant MV4-11 cells (AID 1963824); note: nearly all actives have a fitted effect of over 35% in size
Procedure, shortened: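 CellTiter-Glo luminescence, read 10 min after reagent addition, reports viability after a 72 hr compound exposure. Cells are an MV4-11 line made resistant to SYK inhibition, seeded at 500 per well onto compound-containing plates.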
Potency is the fitted concentration of half-maximal effect; tags give direction and shape of the fitted curve.

SMILES: Cc1ccccc1C(=O)Nc1ccc(C(=O)N2CCC[C@@H](O)c3cc(Cl)ccc32)c(C)c1
- Potency [1]: inconclusive: 20.6 µM [cytotoxic, partial curve]
- Potency [2]: active: 20.6 µM

SMILES: O=C1c2ccccc2C(=O)C1c1ccccc1
- Potency [1]: inactive
- Potency [2]: inactive

SMILES: Cc1nnc(C(C)C)n1C1CC2CCC(C1)N2CCC(NC(=O)C1CCC(F)(F)CC1)c1ccccc1 (configuration not stated)
- Potency [1]: inactive
- Potency [2]: inconclusive: 14.8 µM [cytotoxic, partial curve, poor fit]

SMILES: COc1ccccc1N1CCN(CCCCNC(=O)c2ccc(-c3cscn3)cc2)CC1
- Potency [1]: inconclusive: 20.6 µM [cytotoxic, partial curve, poor fit]
- Potency [2]: inconclusive: 25.9 µM [cytotoxic, single point]

SMILES: CC1=C2C3OC(=O)C(C)C3(O)CCC2(C)CCC1=O (configuration not stated)
- Potency [1]: inactive
- Potency [2]: inconclusive: 29.1 µM [cytotoxic, single point]

SMILES: CN(C)CCOC(=O)COc1ccc(Cl)cc1
- Potency [1]: inactive
- Potency [2]: inactive

SMILES: CC(=O)OCC(=O)[C@@]1(O)CCC2C3CCC4=CC(=O)CC[C@]4(C)C3[C@@H](O)C[C@@]21C (some centres not stated)
- viability (% of control) [1]: inconclusive: 64.2% [cytotoxic]
- Potency [2]: inactive

SMILES: COc1cc(C(CO)C(OC2OC(CO)C(O)C(O)C2O)c2ccc(O)c(OC)c2)ccc1O (configuration not stated)
- Potency [1]: inactive
- Potency [2]: inactive

SMILES: CC(C)S(=O)(=O)N[C@H]1CCOC[C@@H]1c1ccc(-c2ccc(C#N)s2)cc1
- Potency [1]: inactive
- Potency [2]: inconclusive: 25.9 µM [cytotoxic, single point]

SMILES: C=CCC1=C[C@]2(OC)[C@H](C)[C@@H](c3ccc(OC)c(OC)c3)O[C@]2(OC)CC1=O
- Potency [1]: inconclusive: 16.1 µM [cytotoxic, single point]
- Potency [2]: inconclusive: 8.05 µM [cytotoxic, partial curve]

SMILES: CC1(C)O[C@]23C[C@H]1C[C@H](OC(=O)c1ccoc1)[C@]2(C)[C@@H](OC(=O)c1ccoc1)CCC3(C)O (some centres not stated)
- Potency [1]: inconclusive: 2 µM [rising, single point]
- Potency [2]: inconclusive: 3.99 µM [cytotoxic, partial curve, poor fit]

SMILES: CC(O)(CC(=O)O)CC(=O)O[C@@H]1[C@@H](O)[C@H](OCCc2ccccc2)O[C@H](CO)[C@H]1O (some centres not stated)
- Potency [1]: inactive
- Potency [2]: inactive

SMILES: CCN(CC)C(=O)Cc1csc(NS(=O)(=O)c2cccc(Cl)c2C)n1
- Potency [1]: inactive
- Potency [2]: inconclusive: 18.6 µM [cytotoxic, partial curve, poor fit]

SMILES: CN(C(=O)CCCOc1ccc2[nH]c(=O)ccc2c1)C1CCCCC1
- Potency [1]: inconclusive: 1.5 µM [rising, partial curve, poor fit]
- Potency [2]: inconclusive: 0.0119 µM [rising, full curve, poor fit]

SMILES: CC1(CO)CCCC2(C)C3COC(=O)C3=CC(O)C12 (configuration not stated)
- Potency [1]: inconclusive: 0.58 µM [cytotoxic, full curve, poor fit]
- Potency [2]: inactive

SMILES: C=CC[N+]1([C@H]2C[C@H]3[C@@H]4CC[C@H]5C[C@H](O)[C@@H](N6CCOCC6)C[C@]5(C)[C@H]4CC[C@]3(C)[C@H]2OC(C)=O)CCCC1
- Potency [1]: inconclusive: 16.6 µM [cytotoxic, partial curve, poor fit]
- Potency [2]: inconclusive: 20.9 µM [cytotoxic, partial curve, poor fit]

SMILES: C=C[C@H]1CN2CC[C@H]1C[C@@H]2C(O)c1ccnc2ccc(OC)cc12 (some centres not stated)
- Potency [1]: inconclusive: 11.4 µM [cytotoxic, single point]
- Potency [2]: inconclusive: 11.4 µM [cytotoxic, partial curve]

SMILES: C[C@@H]1CC[C@]2(C)C(C[C@@H](O)[C@H](O)[C@]23CO3)[C@@]1(C)CCc1ccoc1 (some centres not stated)
- Potency [1]: inconclusive: 6.4 µM [cytotoxic, single point]
- Potency [2]: inconclusive: 14.3 µM [cytotoxic, partial curve, poor fit]

SMILES: O=C(C(Cc1cccc(C(F)(F)F)c1)NS(=O)(=O)c1cc(F)c2c(c1)CCNC2)N1CCCC1 (configuration not stated)
- Potency [1]: inconclusive: 6.51 µM [cytotoxic, partial curve, poor fit]
- Potency [2]: inconclusive: 10.3 µM [cytotoxic, partial curve, poor fit]

SMILES: O=C1COC2(CCN(S(=O)(=O)c3ccc(-c4ccc5cccnc5c4)cc3)CC2)CN1C1CC1
- Potency [1]: inconclusive: 1.46 µM [cytotoxic, full curve]
- Potency [2]: inconclusive: 5.17 µM [cytotoxic, full curve]

SMILES: C[C@H](NC(=O)CCc1nc2ccccc2c(=O)[nH]1)c1ccccc1
- Potency [1]: inactive
- Potency [2]: inconclusive: 16.4 µM [cytotoxic, single point]

SMILES: Cc1ncc(CCCN(C)C)cc1Nc1ncc2c(n1)-c1ccc(C(F)(F)F)cc1NC(=S)C2
- Potency [1]: active: 0.0517 µM
- Potency [2]: active: 0.0206 µM

SMILES: C[C@]1(OC(=O)/C=C/c2ccc(O)cc2)C[C@@H](O)[C@]2(O)C=CO[C@@H](O[C@@H]3O[C@H](CO)[C@@H](O)[C@H](O)[C@H]3O)C12 (some centres not stated)
- Potency [1]: inconclusive: 5.02 µM [cytotoxic, partial curve]
- Potency [2]: inconclusive: 3.17 µM [cytotoxic, partial curve]

SMILES: COC(=O)c1ccc(OC(CO)C(O)c2ccc(O)c(OC)c2)c(OC)c1 (configuration not stated)
- Potency [1]: inconclusive: 2.86 µM [cytotoxic, full curve, poor fit]
- Potency [2]: inconclusive: 1.8 µM [cytotoxic, partial curve, poor fit]

SMILES: C=C(C(=O)OC)[C@]12O[C@@](C)(CC[C@@]3(O)/C(=C\C)C(=O)O[C@]3(C)C[C@@H]1OC(=O)C(CO)CN1CCCC1C(=O)O)CC2=O (some centres not stated)
- Potency [1]: inconclusive: 4.32 µM [cytotoxic, partial curve]
- Potency [2]: inconclusive: 8.62 µM [cytotoxic, partial curve, poor fit]

SMILES: C=C1CCC[C@]2(C)CC/C(=C(/CO)C(=O)OC)C[C@@H]12
- Potency [1]: active: 20.6 µM
- Potency [2]: active: 14.6 µM

SMILES: O=C(CCCN1CC=C(n2c(=O)[nH]c3ccccc32)CC1)c1ccc(F)cc1
- Potency [1]: inactive and inconclusive: 23.1 µM [cytotoxic, single point]
- Potency [2]: inconclusive: 4.73 µM [cytotoxic, single point] and inconclusive: 11.6 µM [cytotoxic, partial curve]

SMILES: C[C@]1(O)CC[C@@H]2C(C(=O)O)=CO[C@@H](O[C@@H]3O[C@H](COC(=O)c4ccc(O)cc4)[C@@H](O)[C@H](O)[C@H]3O)[C@@H]21
- Potency [1]: inactive
- Potency [2]: inactive

SMILES: NC(N)=N/N=C/c1ccccc1Cl
- Potency [1]: inconclusive: 23.1 µM [cytotoxic, single point]
- Potency [2]: inconclusive: 25.9 µM [cytotoxic, partial curve]

SMILES: CC(=O)O[C@@H]1[C@H](O)[C@@H](O[C@@H]2O[C@@H](C)[C@H](O[C@@H]3OC[C@@H](O)[C@H](O[C@@H]4OC[C@@H](O)[C@H](O)[C@H]4O)[C@H]3O)[C@@H](O[C@@H]3O[C@H](CO)[C@@H](O)[C@H](O)[C@H]3O)[C@H]2O)[C@H](OC(=O)[C@]23CCC(C)(C)C[C@H]2C2=CCC4[C@@]5(C)CC[C@H](O[C@@H]6O[C@H](C(=O)O)[C@@H](O)[C@H](O[C@@H]7OC[C@@H](O)[C@H](O)[C@H]7O)[C@H]6O[C@@H]6O[C@H](CO)[C@H](O)[C@H](O)[C@H]6O)[C@@](C)(C=O)C5CC[C@@]4(C)[C@]2(C)CC3)O[C@@H]1C (some centres not stated)
- Potency [1]: inconclusive: 3.16 µM [cytotoxic, single point]
- Potency [2]: inconclusive: 1.58 µM [cytotoxic, partial curve]

SMILES: NC(=O)c1ncn([C@@H]2O[C@H](CO)[C@@H](O)[C@H]2O)n1
- Potency [1]: inconclusive: 16.8 µM [cytotoxic, single point] and inconclusive: 16.6 µM [cytotoxic, partial curve]
- Potency [2]: inconclusive: 33.5 µM [cytotoxic, single point] and inconclusive: 18.6 µM [cytotoxic, partial curve]
